Test results published in PubChem BioAssay AID504832 (National Center for Advancing Translational Sciences (NCATS), 2011).
The whole screen tested about 310,000 compounds, of which about 18,000 (5.8%) were called active. This list was built around the results that the source calls inconclusive (neither active nor inactive); the mix of calls is not that of the screen. Calls come from the whole dose curve; as a rule, active = well fitted inhibition curve with a large enough effect; inconclusive = small, poorly fitted or top-dose-only effect, or another doubt; inactive = no such curve, though single readings can be large or run the other way. No potency is given beside an inconclusive call; the fits are too rough.
% is set by controls: 0 for no effect and ±100 for the full control effect; potency is the fitted concentration of half-maximal effect; tags give direction and shape of the fitted curve.

Assay: Primary qHTS for delayed death inhibitors of the malarial parasite plastid, 48 hour incubation
Settings: P. falciparum luciferase growth in erythrocytes; series mostly up to 28.7 µM; activity change, negative = inhibition: at the top concentration
Method in brief: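 Cell-based growth assay: transgenic P. falciparum expressing firefly luciferase, cultured in red cells within RPMI 1640 containing 0.5% w/v Albumax, 24 mM bicarbonate and gentamycin. A drop in luciferase activity indicates inhibition.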
For `O=C(/C=C/c1ccc(O)c(O)c1)O[C@H](Cc1ccc(O)c(O)c1)C(=O)O`, the “activity change, negative = inhibition” value was inactive: 59.1%.
For `CC1CCN(S(=O)(=O)c2cccc(C(=O)NC3CCCCC3)c2)CC1`, the Potency was inconclusive [inhibitor, single point].
In the case of `O=C(CCN1C(=O)c2cccc3cccc(c23)C1=O)N1CCN(Cc2ccc3c(c2)OCO3)CC1`, the Potency is reported as inconclusive [inhibitor, full curve, poor fit].
In the case of `Cc1ccc(N(CC(=O)NCc2ccco2)C(=O)CNS(=O)(=O)c2ccc(F)cc2)c(C)c1`, the Potency is reported as inconclusive [inhibitor, single point].
For `CCOC(=O)c1nn(-c2ccc(F)cc2)c2nc(CC(C)C)c(C#N)c(=O)n12`, the Potency was inconclusive [inhibitor, single point].
In the case of `O=C1c2cccnc2C(Nc2ccc(S(=O)(=O)N3CCCCCC3)cc2)N1Cc1ccccc1` (configuration not stated), the Potency is reported as inconclusive [inhibitor, partial curve].
With `CN(C)CCNC(=O)C1(O)c2cc(Br)ccc2NC(=O)N1c1ccc(Cl)cc1` (configuration not stated) the “activity change, negative = inhibition” value was inactive: -3.48%.
In the case of `CCOC(=O)c1sc(NC(=O)CSc2nncs2)c(C(=O)OCC)c1C`, the Potency is reported as inconclusive [inhibitor, full curve].
With `O=C(O)CN1C(c2ccccc2)=Nc2ccc(Br)cc2C1c1ccccc1` (configuration not stated) the “activity change, negative = inhibition” value was inactive: -26.9%.
In the case of `CCC1=C(OC(=O)N(CC)CC)N2C(=O)OC(=NCCc3c[nH]c4ccccc34)[C@]2(Cc2ccccc2)[C@H]2C1=CC[C@H]1C(=O)N(c3ccccc3)C(=O)[C@H]12`, the Potency is reported as active: 13.1 µM.
With `Cc1sc(N/N=C/c2cc([N+](=O)[O-])ccc2O)nc1-c1ccccc1` the Potency was inconclusive [inhibitor, full curve].
In the case of `Cc1cc(NC(=O)Cn2nc(C)c([N+](=O)[O-])c2C)no1`, the “activity change, negative = inhibition” value is reported as inactive: 13%.
With `O=C(O)c1ccc(N2C(=O)c3cccnc3C2=O)cc1` the “activity change, negative = inhibition” value was inactive: -4.6%.
For `N#Cc1ccc(NC(=O)CSc2nc3[nH]c(=O)cc(O)c3s2)cc1`, the Potency was inconclusive [inhibitor, single point].
For `CCCCNc1nc(N)ncc1[N+](=O)[O-]`, the Potency was inconclusive [inhibitor, partial curve, poor fit].
For `O=C(CNS(=O)(=O)c1ccc([N+](=O)[O-])cc1)N/N=C\c1ccc(O)cc1`, the Potency was inconclusive [inhibitor, full curve, poor fit].
With `COc1ccccc1NS(=O)(=O)c1cccc(NC(=O)c2[nH]c(C)c(C(C)=O)c2C)c1` the Potency was inconclusive [inhibitor, partial curve].
For `COC(=O)c1ccc(NC(=S)N2CCN(Cc3cccc(C)c3)CC2)cc1`, the Potency was inconclusive [inhibitor, partial curve, poor fit].
For `Cc1ccn2c(NC3CCCCC3)c(C(C)C)nc2c1`, the Potency was inconclusive [inhibitor, partial curve, poor fit].
For `Cc1ccc(C(=O)N2N=C(c3ccc(Br)cc3)CC2c2ccccc2O)cc1` (configuration not stated), the Potency was inconclusive [inhibitor, full curve, poor fit].
In the case of `COc1cc(N2CCCC2)c(OC)cc1/C=C(/C#N)c1cccc(Br)c1`, the Potency is reported as active: 14.7 µM.
With `CC(C)(C)NC(=O)C1CCN(S(=O)(=O)c2ccc(Br)cc2)CC1` the Potency was active: 9.28 µM.
With `Cn1c(=O)c2c(-c3ccc(C(C)(C)C)cc3)n(CC3CCCO3)cc2n(C)c1=O` (configuration not stated) the Potency was inconclusive [inhibitor, partial curve].
In the case of `CCc1cccc(CC)c1NC(=S)NC(C)c1ccccc1` (configuration not stated), the Potency is reported as inconclusive [inhibitor, single point].
In the case of `Cc1cccc(OCC(=O)Nc2cc(S(=O)(=O)N3CCOCC3)ccc2N2CCCC2)c1C`, the Potency is reported as active: 4.15 µM.
For `CCOC(=O)Cc1csc(SCC(=O)N2CCN(c3ccc(OC)cc3)CC2)n1`, the Potency was inconclusive [inhibitor, single point].
With `Cc1ccc2nc3c(cc(C#N)c(=N)n3Cc3cccnc3)c(=O)n2c1` the “activity change, negative = inhibition” value was inactive: 18.7%.
With `CCCN(CCC)CCCNC(=O)c1nn(-c2cccc(OC)c2)c(=O)c2ccccc12` the Potency was inconclusive [inhibitor, single point].
For `COCCCn1c(=O)c2ccccc2n(Cc2cc(C(=O)OC)ccc2OC)c1=O`, the Potency was active: 7.38 µM.
With `CCn1cc(C(=O)O)c(=O)c2cc(F)c(N3CCN(C(=S)NC(=O)c4ccccc4)CC3)cc21` the Potency was inconclusive [inhibitor, partial curve].
For `COc1cc(CNc2ccc(O)cc2)cc(Br)c1OCc1ccccc1F`, the Potency was inconclusive [inhibitor, single point].
In the case of `CC(NC(=O)c1cc2ccccc2o1)c1ccccc1` (configuration not stated), the “activity change, negative = inhibition” value is reported as inactive: -1.18%.
For `CCCCC1(c2ccc(F)cc2)NC(=O)N(CC(=O)N2CCN(C(=O)c3ccco3)CC2)C1=O` (configuration not stated), the “activity change, negative = inhibition” value was inactive: -13.5%.
With `COc1cc(OC)cc(C(=O)Nc2ccc3c(c2)OCCO3)c1` the “activity change, negative = inhibition” value was inactive: 126%.
In the case of `COc1ccc([C@H]2CC(=O)C=C(c3ccc(Cl)c(C(F)(F)F)c3)C2)cc1OC`, the Potency is reported as inconclusive [inhibitor, single point].
For `Cc1ccc(C(=O)N2CCN(c3ccccc3Cl)CC2)cc1[N+](=O)[O-]`, the Potency was inconclusive [inhibitor, single point].
For `COc1ccc(OC)c(N2C(=O)CC(Cc3ccc(Cl)cc3)C2=O)c1` (configuration not stated), the Potency was inconclusive [inhibitor, single point].
In the case of `O=C(Nc1ccc(Oc2cccnc2)cc1)c1ccccc1F`, the “activity change, negative = inhibition” value is reported as inactive: -12.6%.
For `O=C(/C=C/c1ccc(N2CCCCC2)c([N+](=O)[O-])c1)c1ccc(S(=O)(=O)N2CCCC2)cc1`, the “activity change, negative = inhibition” value was inactive: 12.5%.
In the case of `CCOCCCn1c(=NC(=O)c2cccnc2)c(C(=O)OCC)cc2c(=O)n3ccccc3nc21`, the Potency is reported as inconclusive [inhibitor, single point].
For `O=C(OCCN1C(=O)c2cccc3c(N4CCOCC4)ccc(c23)C1=O)c1ccc(Cl)cc1Cl`, the Potency was inconclusive [inhibitor, partial curve].
For `CC(=O)Oc1ccc(OC(C)=O)c(S(=O)(=O)c2ccc(C)c(C)c2)c1`, the “activity change, negative = inhibition” value was inactive: 23.1%.
